Laboratory results as given in PubChem BioAssay AID1476 (National Center for Advancing Translational Sciences (NCATS), 2009).
Screen size: about 200,000 compounds; about 4,500 (2.2%) were called active. Inconclusive results, whose numbers are uncertain, are shown with a selection of clear calls. Calls follow the shape of the dose curve; as a rule, active = well fitted inhibition curve with a large enough effect; inconclusive = small, poorly fitted or top-dose-only effect, or effect the other way; inactive = flat fitted curve, though single readings scatter. Where the call is inconclusive, the potency comes from a doubtful curve fit.

target: Cruzipain (Trypanosoma cruzi) (UniProt P25779); test: qHTS Assay for Promiscuous and Specific Inhibitors of Cruzain (without detergent); details: purified cruzain, Z-FR-AMC fluorescence, no detergent; also: nearly all actives have a fitted effect of over 40% in size;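 as to max response, negative = inhibition: plate controls were enzyme without inhibitor for no effect and buffer without enzyme for full effect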
Outline: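 Detergent-free condition (0.00005% Triton X-100) in acetate buffer pH 5.5 with DTT. 1.5 nM enzyme and compound were pre-mixed 15 min, then 2 uM Z-FR-AMC substrate added; reaction progress from fluorescence change between first and third reads (60 s).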
Potency is read from the fitted curve at half-maximal effect; tags tell the direction and shape of the fitted curve.

Chain of UniProt P25779 (P25779 whole entry, looked up): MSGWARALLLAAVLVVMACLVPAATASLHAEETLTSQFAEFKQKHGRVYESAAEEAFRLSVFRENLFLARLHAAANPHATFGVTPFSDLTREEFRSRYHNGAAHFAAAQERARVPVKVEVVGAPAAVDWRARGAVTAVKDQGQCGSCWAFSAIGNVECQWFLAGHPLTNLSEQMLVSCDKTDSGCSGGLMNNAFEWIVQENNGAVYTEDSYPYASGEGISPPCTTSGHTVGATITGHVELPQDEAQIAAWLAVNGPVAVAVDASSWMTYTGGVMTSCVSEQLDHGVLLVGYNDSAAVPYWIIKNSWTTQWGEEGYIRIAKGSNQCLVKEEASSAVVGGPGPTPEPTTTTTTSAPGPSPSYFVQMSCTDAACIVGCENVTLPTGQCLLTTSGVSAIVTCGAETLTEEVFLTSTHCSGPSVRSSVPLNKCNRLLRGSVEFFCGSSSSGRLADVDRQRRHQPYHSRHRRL

Q: `Cc1cc(C)n2nc(N)c(N=Nc3ccc4c(c3)OCO4)c2n1` was tested. Which Potency did it give?
A: inconclusive: 5.01 µM [inhibitor, single point]

Q: Which Potency does the source give for `N#Cc1c(C(F)(F)F)cc(-c2ccccc2)nc1SCC(=O)Nc1sc2c(c1C#N)CCC2` here?
A: inconclusive: 3.98 µM [inhibitor, single point]

Q: How did the Potency turn out when `CCCCC/C=C\C/C=C\C/C=C\C/C=C\CCCC(=O)NCCCC(=O)O` was run?
A: inconclusive: 7.94 µM [activator, partial curve]

Q: For `c1ccc2[nH]c(NCCN3CCOCC3)nc2c1`, which max response, negative = inhibition is on record?
A: inactive: -8.64%

Q: `COc1cc(C2C3C(=O)N(Cc4ccccc4)C(=O)C3ON2c2ccccc2)cc(OC)c1O` (centres undefined) was tested. Which Potency did it give?
A: inconclusive: 31.6 µM [activator, single point]

Q: With `COC(=O)c1ccc(NC(=O)CSc2nnc(Cc3cccn3C)n2-c2ccc(F)cc2)cc1` as the compound, how does the Potency read?
A: inconclusive: 31.6 µM [activator, single point]

Q: For `CN(C(=O)c1ccc2c(c1)N(Cc1ccccc1F)C(=O)c1ccccc1S2)C1CCCCC1`, which Potency is on record?
A: inconclusive: 39.8 µM [inhibitor, single point]

Q: With `Cc1cccc(NCc2nnc3n2CCCCC3)c1C` as the compound, how does the max response, negative = inhibition read?
A: inactive: 3.6%

Q: Which Potency does the source give for `COc1ccccc1N1CCN(c2nc3ccc(C)cc3nc2-n2nc(C)cc2C)CC1` here?
A: inconclusive: 39.8 µM [activator, single point]

Q: For `CC1(C)Cc2c(C#N)c(N3CCN(C(=O)c4ccco4)CC3)nc(-c3ccco3)c2CS1`, which Potency is on record?
A: active: 15.8 µM

Q: With `N#C/C(=C\c1ccc(Sc2nc3ccccc3[nH]2)o1)c1ccccc1` as the compound, how does the Potency read?
A: inconclusive: 31.6 µM [inhibitor, single point]

Q: `COC(=O)NNC(=O)COc1cc(C)c(Br)cc1C(C)C` was tested. Which max response, negative = inhibition did it give?
A: inactive: 1.97%

Q: How did the max response, negative = inhibition turn out when `CCOC(=O)CN1CC23C=CC(O2)C(C(=O)Nc2ccc(OC)cc2OC)C3C1=O` (centres undefined) was run?
A: inactive: -8.07%

Q: For `COc1cccc(-c2ccc(=O)n(CC(=O)Nc3ccc(C(=O)N4CCCC4)cc3)n2)c1`, which Potency is on record?
A: inconclusive: 39.8 µM [activator, single point]

Q: How did the Potency turn out when `COc1ccccc1NC(=O)CCn1nc(-c2ccccc2)c2ccccc2c1=O` was run?
A: inconclusive: 25.1 µM [activator, partial curve]

Q: With `CCOc1cc(S(=O)(=O)N2CCCCCC2)ccc1F` as the compound, how does the Potency read?
A: inconclusive: 3.98 µM [inhibitor, partial curve, poor fit]

Q: With `Cc1nc2cnc(Oc3cccc(Cl)c3)nc2n(C[C@H]2CCCO2)c1=O` as the compound, how does the max response, negative = inhibition read?
A: inactive: -3.74%

Q: Which Potency does the source give for `COc1ccc(NC(=O)c2ccc3c(c2)c(C)c(C)n3Cc2ccc(F)cc2)c(OC)c1` here?
A: inconclusive: 39.8 µM [inhibitor, single point]

Q: `COc1cccc(CN2C(=O)c3ccccc3Sc3ccc(C(=O)NCCc4ccc(Cl)cc4)cc32)c1` was tested. Which Potency did it give?
A: active: 20 µM

Q: `COc1ccc(NC(=O)c2cc3c([nH]c2=O)CC(c2ccccc2)CC3=O)cc1` (centres undefined) was tested. Which max response, negative = inhibition did it give?
A: inactive: 12.5%

Q: How did the Potency turn out when `Cc1cccc(Nc2ccccc2C(=O)OCC(=O)N(C)C2CCS(=O)(=O)C2)c1C` (centres undefined) was run?
A: inconclusive: 31.6 µM [activator, single point]

Q: For `CCCOc1ccc(OC(=O)c2c(-c3ccccc3Cl)noc2C)cc1`, which max response, negative = inhibition is on record?
A: inactive: -19.5%

Q: For `COc1ccc(NC(=O)Cn2c(=O)n(-c3ccc(CC(=O)NCC4CCCO4)cc3)c(=O)c3ccccc32)c(OC)c1` (centres undefined), which Potency is on record?
A: inconclusive: 31.6 µM [activator, single point]

Q: For `COc1ccc(/C=N\NS(=O)(=O)c2ccc(Cl)cc2)cc1COc1ccccc1[N+](=O)[O-]`, which Potency is on record?
A: inconclusive: 31.6 µM [inhibitor, partial curve, poor fit]

Q: `Cc1ccc(-c2nn(CC(=O)NC3CCCC3)c3c2cnc2ccccc23)cc1` was tested. Which Potency did it give?
A: inconclusive: 39.8 µM [activator, single point]

Q: How did the Potency turn out when `Cc1ccc(Nc2nc(CSc3nnc(-c4ccc(F)cc4)n3C)cs2)cc1` was run?
A: inconclusive: 39.8 µM [inhibitor, single point]

Q: For `C=CC[C@](C)(Nc1ccc(OC)cc1)C(=O)OCC`, which max response, negative = inhibition is on record?
A: inactive: 10.2%

Q: With `Cc1cccc(-c2nc(CSCC(=O)NCCc3ccc(Cl)cc3)c(C)o2)c1` as the compound, how does the Potency read?
A: inconclusive: 39.8 µM [activator, single point]

Q: Which Potency does the source give for `CCCn1c(C)cs/c1=N\C(=S)Nc1ccccc1` here?
A: inconclusive: 39.8 µM [inhibitor, single point]

Q: With `COc1cc(NC(=O)c2nc3ccccc3nc2N2CCCCC2)cc(OC)c1OC` as the compound, how does the Potency read?
A: inconclusive: 39.8 µM [activator, single point]

Q: Which max response, negative = inhibition does the source give for `Cc1ccc(C)c(NC(=O)c2nn(C)c3c2CS(=O)(=O)c2ccccc2-3)c1` here?
A: inactive: 2.1%

Q: With `COc1cc(/C=C/c2nc(C#N)c(NCCc3ccccc3)o2)cc(OC)c1OC` as the compound, how does the Potency read?
A: inconclusive: 3.98 µM [inhibitor, single point]

Q: Which max response, negative = inhibition does the source give for `CCc1ccc(-c2nn(CC(=O)Nc3ccccc3C)c3c2cnc2ccc(C)cc23)cc1` here?
A: inactive: -20.3%

Q: `O=[N+]([O-])c1ccc(COc2ccc(-c3[nH]ncc3-c3ccc(Cl)cc3)c(O)c2)cc1` was tested. Which Potency did it give?
A: inconclusive: 39.8 µM [inhibitor, single point]

Q: Which Potency does the source give for `COc1cc(NC(=O)N2CCC3(CC2)Nc2cc(F)ccc2-n2cccc23)cc(OC)c1OC` here?
A: inconclusive: 39.8 µM [activator, single point]

Q: For `O=S(=O)(Nc1ncccc1O)c1ccc(Cl)cc1`, which max response, negative = inhibition is on record?
A: inactive: 3.4%

Q: With `CC(C)(C)c1ccc(CN(Cc2ccco2)c2cnc(S(C)(=O)=O)nc2C(=O)Nc2ccc(F)cc2)cc1` as the compound, how does the Potency read?
A: active: 7.94 µM

Q: Which Potency does the source give for `COc1ccccc1/C=N/NC(=O)c1nnn(-c2nonc2N)c1CSC1=NCCS1` here?
A: inconclusive: 31.6 µM [inhibitor, single point]

Q: `COc1ccc(OC)c(C2C(C(=O)N3CCCCC3)=C(C)Nc3nc4ccccc4n32)c1` (centres undefined) was tested. Which max response, negative = inhibition did it give?
A: inactive: -5.92%

Q: How did the Potency turn out when `N#C/C(=C/c1cn(Cc2ccccc2Cl)c2ccccc12)C(=O)Nc1cccc(Cl)c1` was run?
A: active: 3.16 µM

Q: With `COc1ccc(CNC(=O)c2ccc3nc(CCc4ccccc4)oc3c2)c(OC)c1` as the compound, how does the Potency read?
A: inconclusive: 39.8 µM [activator, single point]

Q: With `Cc1cccnc1NC(=S)NC(=O)c1cncc(Br)c1` as the compound, how does the max response, negative = inhibition read?
A: inactive: 0.513%

Q: With `CCOC(=O)N1CCN(C(=O)CN(c2ccc(Cl)c(C(F)(F)F)c2)S(C)(=O)=O)CC1` as the compound, how does the Potency read?
A: inconclusive: 25.1 µM [activator, partial curve]

Q: With `O=C(/C=C/c1ccc(Cl)cc1Cl)N1CCc2ccccc21` as the compound, how does the Potency read?
A: inconclusive: 39.8 µM [inhibitor, single point]

Q: For `COc1ccc(-c2coc3c(OC)c(OC)cc(O)c3c2=O)cc1`, which Potency is on record?
A: inconclusive: 31.6 µM [activator, single point]

Q: For `COc1cc(CCN2C(=O)c3cccc4cccc(c34)C2=O)c(S(=O)(=O)NCCCO)cc1OC`, which Potency is on record?
A: inconclusive: 31.6 µM [activator, single point]

Q: How did the Potency turn out when `COCCN(Cc1cc2ccc(C)cc2n2nnnc12)Cc1nnnn1C(C)(C)C` was run?
A: inconclusive: 39.8 µM [activator, single point]

Q: With `COc1ccc(/C=N/NC(=O)c2cccnc2)cc1CSc1nc2ccccc2s1` as the compound, how does the Potency read?
A: inconclusive: 25.1 µM [activator, single point]

Q: How did the max response, negative = inhibition turn out when `Cc1c(Cl)cccc1-n1ncc(C(=O)NCc2cccs2)c1C1CCN(C(=O)OC(C)(C)C)CC1` was run?
A: inactive: 8.06%

Q: With `CCOC(=O)CNC(=O)C(CC(C)C)NC(=O)C1CCCCC1` (centres undefined) as the compound, how does the Potency read?
A: inconclusive: 25.1 µM [inhibitor, single point]

Q: Which Potency does the source give for `Cc1ccc(NC(=O)c2sc3nc[nH]c(=O)c3c2C)cc1Cl` here?
A: inconclusive: 20 µM [activator, single point]

Q: `CC(C)Cn1c(N)c(C(=O)COC(=O)c2ccc3ccccc3n2)c(=O)n(C)c1=O` was tested. Which Potency did it give?
A: inconclusive: 31.6 µM [activator, single point]

Q: How did the Potency turn out when `Cc1cc(=O)oc2cc(NC(=O)c3cc4ccccc4o3)ccc12` was run?
A: active: 10 µM

Q: For `CCOc1ccc(-n2c(SCC(=O)N3CCCCCC3)nc3c([nH]c4ccccc43)c2=O)cc1`, which Potency is on record?
A: inconclusive: 1.26 µM [activator, partial curve, poor fit]

Q: With `CCn1cc(C(=O)NCCc2ccc(OC)c(OC)c2)c(=O)c2cc(S(=O)(=O)N3CCC(C)CC3)ccc21` as the compound, how does the Potency read?
A: inconclusive: 10 µM [activator, partial curve]

Q: With `Cc1cc(C)c(C(N)=O)c(NC(=O)Nc2ccccc2Cl)n1` as the compound, how does the Potency read?
A: inconclusive: 31.6 µM [inhibitor, single point]

Q: With `COC(=O)[C@@]1(Cc2ccc(OC)cc2)[C@H]2c3cc(C(=O)N4CCCC4)n(CCN4CCNC4=O)c3C[C@H]2CN1C(=O)c1ccccc1` as the compound, how does the Potency read?
A: inconclusive: 25.1 µM [activator, partial curve]

Q: Which Potency does the source give for `CCN(CC)S(=O)(=O)c1ccc2c(c1)nc(SC(C)C(N)=O)n2-c1ccc(OC)cc1` (centres undefined) here?
A: inconclusive: 39.8 µM [activator, single point]

Q: For `Cc1ccc(S(=O)(=O)Nc2ccc(-c3csc(-c4ccccc4)n3)cc2)cc1`, which Potency is on record?
A: inconclusive: 39.8 µM [inhibitor, single point]

Q: `CCc1ccccc1NC(=O)C1CCN(C(=O)N2CC(C)Oc3ccc(Cl)cc32)CC1` (centres undefined) was tested. Which max response, negative = inhibition did it give?
A: inactive: -22.2%

Q: Which Potency does the source give for `CCn1c(C(=O)N2CCC(C(=O)NCCCSC3CCCCC3)CC2)cc2sccc21` here?
A: inconclusive: 39.8 µM [activator, single point]

Q: For `COc1ccc(CC(=O)Nc2c3c(nn2C(C)(C)C)CS(=O)C3)cc1` (centres undefined), which Potency is on record?
A: inconclusive: 25.1 µM [inhibitor, single point]

Q: Which Potency does the source give for `Cc1ccc(C(=O)Oc2oc(-c3ccco3)nc2C=Nc2ccccc2)cc1` here?
A: active: 12.6 µM

Q: `O=C(N/N=C/c1c[nH]c2ccc(Br)cc12)c1ccn(Cc2ccc(Cl)cc2Cl)n1` was tested. Which Potency did it give?
A: inconclusive: 31.6 µM [inhibitor, single point]
